Test results published in a compilation of properties of binary mixtures (doi:10.1021/acs.jced.8b00965).
Some of these densities may be calculated back from excess volumes.

Assay: xn = mol fraction of the nth substance listed
Conditions: 100 kPa

C[N+](C)(C)CCC[N+]1(C)CCCCC1.N#C[N-]C#N.N#C[N-]C#N + CO
mass density [kg/m3]
Conditions	x1 = 0.0998	x1 = 0.2001	x1 = 0.2999	x1 = 0.4002	x1 = 0.5001	x1 = 0.6001	x1 = 0.7003	x1 = 0.8002	x1 = 0.8991	x1 = 1
293.15 K	958	1020	1050.5	1069.8	1083.3	–	1100.9	1106.6	1110.3	1113.2
303.15 K	951	–	1044.7	1064.1	1077.6	1087.6	1095.3	1101.1	1105.1	1107.6
313.15 K	944	1007.7	1038.5	1058.2	1071.9	1082.1	1089.8	1095.7	1100	1102.1
323.15 K	–	1001.3	1032	1052.1	–	1076.4	1084.3	1090.4	1094.7	1096.7
333.15 K	930.1	994.3	1025.8	1046.1	1060.3	1070.8	1078.8	–	1089.6	1091.4

C[N+](C)(C)CCC[n+]1ccccc1.N#C[N-]C#N.N#C[N-]C#N + CO
mass density [kg/m3]
Conditions	x1 = 0.0999	x1 = 0.2001	x1 = 0.3002	x1 = 0.3999	x1 = 0.5002	x1 = 0.6001	x1 = 0.7003	x1 = 0.7998	x1 = 0.8995	x1 = 1
293.15 K	968	1040.9	1080.4	–	1120.5	1131.8	1140.3	1147	–	1158
303.15 K	960.6	1034.3	1074.1	1098.2	–	1125.8	–	1141.2	1147.2	1152.1
313.15 K	–	1027.9	1067.8	–	–	1119.8	1128.5	–	1141.5	–
323.15 K	946.8	1021.4	–	–	–	–	1122.7	1129.7	1135.8	1140.7
333.15 K	–	–	1055.6	–	1096.5	–	1117	1124.1	1130.2	1135.1

CO + C[N+](C)(C)CCC[N+]1(C)CCCCC1.N#C[N-]C#N.N#C[N-]C#N
x2 = 0
Conditions	mass density [kg/m3]
303.15 K	781.9
313.15 K	772.4
333.15 K	752.9

CO + C[N+](C)(C)CCC[n+]1ccccc1.N#C[N-]C#N.N#C[N-]C#N
x2 = 0
Conditions	mass density [kg/m3]
293.15 K	791.3
303.15 K	781.9
313.15 K	772.4
323.15 K	762.7
333.15 K	752.9
